Laboratory results published in a compilation of properties of binary mixtures (doi:10.1016/j.jct.2020.106093).
Some of these densities may be calculated back from excess volumes.

Assay: xn = mol fraction of the nth substance listed
Settings: 100.9 kPa

CC(=O)[O-].CC[NH2+]CC + O
mass density [kg/m3]
Settings | x1 = 0.015 | x1 = 0.055 | x1 = 0.119 | x1 = 0.168 | x1 = 0.24 | x1 = 0.35 | x1 = 0.549 | x1 = 0.708 | x1 = 0.835 | x1 = 1
293.15 K | 1003 | 1015 | 1021 | 1020 | 1013 | 999 | 985 | 972 | 965 | 949
298.15 K | 1001 | 1012 | 1018 | 1017 | 1010 | – | 982 | – | 961 | –
303.15 K | 999 | 1010 | 1015 | – | 1006 | 994 | 979 | 965 | – | –
308.15 K | 998 | 1008 | 1012 | 1010 | 1003 | 990 | 976 | 962 | – | –
313.15 K | 996 | 1005 | 1009 | 1007 | 1000 | 987 | – | 958 | 951 | –
318.15 K | 994 | 1002 | 1006 | 1004 | 997 | 984 | 970 | 955 | 947 | 932
323.15 K | 992 | 999 | 1003 | 1001 | 993 | 981 | 966 | 952 | 944 | –
